# Measurements: PubChem BioAssay AID1347165 (National Center for Advancing Translational Sciences (NCATS), 2019)
# Where “and” joins values, the source holds several entries; their conditions need not be identical. Equal values may be shown once. Screen size: about 220,000 compounds; about 5,700 (2.6%) were called active. The shares of active, inactive and inconclusive entries below differ from those in the screen. The call rests on the fitted dose curve; in most records, active means well fitted inhibition curve with a large enough effect; inconclusive means small, poorly fitted or top-dose-only effect; inactive means no such curve, though single readings can be large or run the other way. Potencies of inconclusive entries are doubtful fits and often do not repeat.
# Molecular target: Lysine-specific demethylase 5B (Homo sapiens) (UniProt Q9UGL1)
# Sequence of UniProt Q9UGL1 (Q9UGL1 whole entry, looked up): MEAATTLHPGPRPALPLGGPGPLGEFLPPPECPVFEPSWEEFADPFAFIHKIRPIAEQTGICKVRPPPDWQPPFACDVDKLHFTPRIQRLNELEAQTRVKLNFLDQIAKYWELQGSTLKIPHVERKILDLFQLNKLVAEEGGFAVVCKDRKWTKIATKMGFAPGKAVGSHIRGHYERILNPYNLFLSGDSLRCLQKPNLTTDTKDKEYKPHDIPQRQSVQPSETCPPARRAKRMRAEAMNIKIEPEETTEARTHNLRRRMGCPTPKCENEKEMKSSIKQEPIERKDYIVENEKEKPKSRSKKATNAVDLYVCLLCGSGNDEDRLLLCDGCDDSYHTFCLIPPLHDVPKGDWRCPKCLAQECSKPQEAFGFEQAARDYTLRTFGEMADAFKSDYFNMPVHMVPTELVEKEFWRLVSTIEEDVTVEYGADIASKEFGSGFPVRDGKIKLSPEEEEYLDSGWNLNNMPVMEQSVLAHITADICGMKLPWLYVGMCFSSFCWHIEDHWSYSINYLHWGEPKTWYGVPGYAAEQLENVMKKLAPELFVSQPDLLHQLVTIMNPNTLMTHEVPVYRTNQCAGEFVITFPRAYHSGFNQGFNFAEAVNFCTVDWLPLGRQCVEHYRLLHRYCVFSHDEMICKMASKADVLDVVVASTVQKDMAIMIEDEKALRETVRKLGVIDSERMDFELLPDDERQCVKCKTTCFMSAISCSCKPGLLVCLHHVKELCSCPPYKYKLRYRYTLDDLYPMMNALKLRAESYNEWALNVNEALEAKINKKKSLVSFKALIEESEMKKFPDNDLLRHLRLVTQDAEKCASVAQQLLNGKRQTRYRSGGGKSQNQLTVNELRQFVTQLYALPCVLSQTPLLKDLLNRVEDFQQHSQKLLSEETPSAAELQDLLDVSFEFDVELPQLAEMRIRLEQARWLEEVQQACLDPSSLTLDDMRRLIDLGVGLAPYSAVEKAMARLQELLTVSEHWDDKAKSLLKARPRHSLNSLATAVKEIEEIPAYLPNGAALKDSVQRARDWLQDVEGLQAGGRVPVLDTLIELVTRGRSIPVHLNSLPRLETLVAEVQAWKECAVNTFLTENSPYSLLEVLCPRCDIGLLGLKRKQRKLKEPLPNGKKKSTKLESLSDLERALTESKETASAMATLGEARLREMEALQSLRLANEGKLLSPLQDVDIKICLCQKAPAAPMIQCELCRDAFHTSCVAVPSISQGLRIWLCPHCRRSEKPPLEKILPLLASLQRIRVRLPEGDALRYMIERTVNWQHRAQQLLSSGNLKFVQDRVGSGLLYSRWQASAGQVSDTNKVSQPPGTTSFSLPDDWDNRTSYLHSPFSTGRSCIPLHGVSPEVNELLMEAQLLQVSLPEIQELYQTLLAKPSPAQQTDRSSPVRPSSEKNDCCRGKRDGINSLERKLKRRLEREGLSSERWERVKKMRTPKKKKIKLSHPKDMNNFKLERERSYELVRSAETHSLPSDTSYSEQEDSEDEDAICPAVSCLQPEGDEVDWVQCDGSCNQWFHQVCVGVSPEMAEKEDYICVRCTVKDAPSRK
# Experiment: Primary screen for KDM5B Histone Demethylases FDH-coupled qHTS; further: nearly all actives have a fitted effect of over 70% in size
# Settings: FDH-coupled NADH fluorescence (FDH is formaldehyde dehydrogenase); series mostly up to 57.7 µM
# Outline: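 KDM5BΔAP (200 nM final) in 50 mM HEPES pH 7.5, 0.01% Tween-20 was preincubated 10 min at RT with compound over a concentration range. Substrate mix (H3K4me3 12.5 µM, α-KG 25 µM, Fe²⁺, ascorbate, NAD⁺, FDH) was added, and NADH fluorescence change over 30 min gave dose-response curves.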
# Potency means the concentration at half of the fitted maximal effect; tags describe the fitted curve by direction and shape.
row,SMILES,Potency
1,O=C(/C=C/c1ccco1)N1CCN(Cc2ccc(C(F)(F)F)cc2)CC1,"inconclusive: 28.2 µM [inhibitor, partial curve, poor fit]"
2,O=C(Nc1cc(C(F)(F)F)ccc1Cl)c1cc(-c2ccc3c(c2)OCCO3)on1,"inconclusive: 28.2 µM [inhibitor, single point]"
3,Cc1noc(C)c1[S+](=O)([O-])N1CCC2(C1)N=C(c1cccnc1)C(=O)N2 (configuration not stated),inactive
4,Cc1ccc(C(=O)NCC(O)c2ccccc2)cc1 (configuration not stated),inactive
5,Cc1cccc(-c2nc(C#N)c(NCc3ccco3)o2)c1,"inconclusive: 22.4 µM [inhibitor, partial curve, poor fit]"
6,O=C(NC1CCN(c2cc(-c3ccc(F)cc3)[nH]n2)C1)c1cc2ccccc2[nH]1 (configuration not stated),active: 8.91 µM
7,NC(=O)Cn1nc2sc3ccccc3n2c(=O)c1=O,"inconclusive: 35.5 µM [inhibitor, partial curve, poor fit]"
8,CCOC(=O)c1ccc(NC(=O)Cn2ccn3nc(-c4ccccc4)c(CO)c3c2=O)cc1,"inconclusive: 28.2 µM [inhibitor, partial curve, poor fit]"
9,O=C1CCCCN1CCNc1ccc(-c2nc(-c3ccccc3F)no2)cn1,active: 31.6 µM
10,CCOC(=O)c1sc(NC(=O)C2c3ccccc3Oc3ccccc32)c(C(=O)OCC)c1C,"inconclusive: 3.55 µM [inhibitor, partial curve, poor fit]"
11,CCOc1ccc(CC(=O)N2CCC[C@H]2c2nc(-c3ccccc3Cl)no2)cc1OCC,inactive
12,N#Cc1c(OCC(=O)N2CCCCC2)nc(-c2ccco2)c2c1CCC2,"inconclusive: 3.98 µM [inhibitor, full curve, poor fit]"
13,COc1cc(NC(=O)c2cnc(-c3ccc(C)cc3)nc2-c2ccncc2)cc(OC)c1,"inconclusive: 35.5 µM [inhibitor, partial curve, poor fit]"
14,CCOC(=O)C1CCC(CNC(=O)Nc2c(NC3CCCC3)c3ccccc3oc2=O)CC1 (configuration not stated),inactive
15,Fc1ccc(C2=CC(c3ccco3)n3nnnc3N2)cc1 (configuration not stated),"inconclusive: 28.2 µM [inhibitor, single point]"
16,COc1ccccc1Nc1nn2c(=O)c3ccc(C(=O)N4CCCC(C)C4)cc3nc2s1 (configuration not stated),"inconclusive: 39.8 µM [inhibitor, single point] and inconclusive: 25.1 µM [inhibitor, single point]"
17,COc1cccc(CNC(=O)c2nn(-c3ccc(C)cc3)c(=O)c3c2c2ccccc2n3C)c1,"inconclusive: 3.55 µM [inhibitor, partial curve, poor fit]"
